# PubChem BioAssay (Tox21)
# Values joined by “and” are separate entries in the source; they are usually repeats but may differ in a detail not shown here. Equal values may be shown once. The inconclusive results got no clear call from the source; some entries with a clear call stand among them for comparison. For some of these results: Where the call is inconclusive, the potency comes from a doubtful curve fit. The source holds several records for some structures; these can differ, active in one and inactive in another. Active and inactive are the calls of the source. Unless noted, the call rests on the fitted dose curve; in most records, active means well fitted curve in the direction sought with a large enough effect in the repeat runs; inconclusive means weak or mixed curves; inactive means no such curve, though single readings can be large; an effect the other way counts as inactive or inconclusive.
# How the values were obtained:
# [1] = target: Luciferin 4-monooxygenase (Photinus pyralis) (UniProt P08659); test: qHTS assay to identify small molecule inhibitors of firefly luciferase (AID 1224835); further: nearly all actives have a fitted effect of over 25% in size; further: potency means the concentration at half of the fitted maximal effect
# Chain of UniProt P08659 (P08659 whole entry, looked up): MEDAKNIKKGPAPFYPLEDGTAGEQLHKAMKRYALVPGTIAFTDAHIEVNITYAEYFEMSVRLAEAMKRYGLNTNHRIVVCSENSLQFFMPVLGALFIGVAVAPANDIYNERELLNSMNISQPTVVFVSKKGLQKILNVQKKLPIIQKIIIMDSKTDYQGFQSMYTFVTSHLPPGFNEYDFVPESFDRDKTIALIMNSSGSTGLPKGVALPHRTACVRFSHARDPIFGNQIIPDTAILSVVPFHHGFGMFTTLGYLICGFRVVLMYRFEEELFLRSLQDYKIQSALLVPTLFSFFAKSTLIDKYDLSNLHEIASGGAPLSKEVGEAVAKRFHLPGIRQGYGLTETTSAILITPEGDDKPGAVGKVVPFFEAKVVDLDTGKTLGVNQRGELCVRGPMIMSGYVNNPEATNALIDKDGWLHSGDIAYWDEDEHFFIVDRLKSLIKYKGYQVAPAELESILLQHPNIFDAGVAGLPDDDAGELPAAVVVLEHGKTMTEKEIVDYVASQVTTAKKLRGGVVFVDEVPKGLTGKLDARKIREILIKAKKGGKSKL
# Procedure, shortened: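 Biochemical qHTS: compounds run as interplate titrations against purified firefly enzyme, with D-luciferin and ATP each at its KM concentration. Light output recorded by CCD imaging.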
# [2] = target: Nuclear receptor subfamily 1 group I member 3 (Homo sapiens) (UniProt Q14994); test: qHTS assay to identify small molecule agonists of the constitutive androstane receptor (CAR) signaling pathway (AID 1224839); further: nearly all actives have a fitted effect of over 15% in size; further: potency means the concentration at half of the fitted maximal effect;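 on activation: HepG2 cells stably carrying human CAR and a CYP2B6 luciferase reporter; on the % scale 0 is the no-effect control and ±100 the full control effect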
# Chain of UniProt Q14994 (Q14994 whole entry, looked up): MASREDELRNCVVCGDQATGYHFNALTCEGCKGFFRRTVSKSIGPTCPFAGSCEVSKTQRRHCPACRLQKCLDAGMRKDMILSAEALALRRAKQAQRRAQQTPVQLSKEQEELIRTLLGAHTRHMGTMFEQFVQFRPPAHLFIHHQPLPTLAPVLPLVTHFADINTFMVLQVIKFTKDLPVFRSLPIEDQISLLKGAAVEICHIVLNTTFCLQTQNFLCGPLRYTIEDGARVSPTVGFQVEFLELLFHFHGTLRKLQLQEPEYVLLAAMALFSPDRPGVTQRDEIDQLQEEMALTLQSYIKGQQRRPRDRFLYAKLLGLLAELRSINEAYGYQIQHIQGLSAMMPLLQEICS
# Procedure, shortened: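 Luminescence read-out (ONE-Glo, 30 min, room temperature) from double-stable HepG2-CYP2B6-hCAR cells exposed 24 h to 15-point compound series in presence of 0.75 uM PK11195 final.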
# [3] = qHTS assay to identify small molecule antagonists of the estrogen related receptor signaling pathway with the pleiotropic PPARgamma coactivator (PGC) from Tox21 10K library (AID 1224841; call rule not given here; further: actives are mostly falling curves and most rising ones were filed inactive; nearly all actives have a fitted effect of over 50% in size; further: potency means the concentration at half of the fitted maximal effect)
# Procedure, shortened: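 Test chemicals dissolved in DMSO were applied to pre-incubated (6 h) PGC/ERR cells at 2,000 cells/well for an 18 h, 37 C treatment; reporter luminescence was then read using One-Glo.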
# [4] = qHTS assay to identify small molecule antagonists of the estrogen related receptor (ERR) signaling pathway from Tox21 library (AID 1224848); further: potency means the concentration at half of the fitted maximal effect; nearly all actives have a fitted effect of over 50% in size
# Procedure, shortened: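 Compounds dissolved in DMSO are pin-transferred onto ERR reporter cells (2,000 per well) that have settled for 6 h at 37 C. Plates then incubate 18 h at 37 C before ONE-Glo luciferase reagent and a luminescence read 30 min later.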
# [5] = target: Thyrotropin receptor (Homo sapiens) (UniProt P16473); test: qHTS assay to identify small molecule agonists of the thyroid stimulating hormone receptor (TSHR) signaling pathway (AID 1224843; calls by dose curve; further: nearly all actives have a fitted effect of over 45% in size; further: potency means the concentration at half of the fitted maximal effect; on activation: on the % scale 0 is the no-effect control and ±100 the full control effect); conditions: TSHR-HEK293 cells, cAMP HTRF, agonist mode, 30 min; activation: at 92.4 µM (top of the series) unless noted
# Chain of UniProt P16473 (P16473 whole entry, looked up): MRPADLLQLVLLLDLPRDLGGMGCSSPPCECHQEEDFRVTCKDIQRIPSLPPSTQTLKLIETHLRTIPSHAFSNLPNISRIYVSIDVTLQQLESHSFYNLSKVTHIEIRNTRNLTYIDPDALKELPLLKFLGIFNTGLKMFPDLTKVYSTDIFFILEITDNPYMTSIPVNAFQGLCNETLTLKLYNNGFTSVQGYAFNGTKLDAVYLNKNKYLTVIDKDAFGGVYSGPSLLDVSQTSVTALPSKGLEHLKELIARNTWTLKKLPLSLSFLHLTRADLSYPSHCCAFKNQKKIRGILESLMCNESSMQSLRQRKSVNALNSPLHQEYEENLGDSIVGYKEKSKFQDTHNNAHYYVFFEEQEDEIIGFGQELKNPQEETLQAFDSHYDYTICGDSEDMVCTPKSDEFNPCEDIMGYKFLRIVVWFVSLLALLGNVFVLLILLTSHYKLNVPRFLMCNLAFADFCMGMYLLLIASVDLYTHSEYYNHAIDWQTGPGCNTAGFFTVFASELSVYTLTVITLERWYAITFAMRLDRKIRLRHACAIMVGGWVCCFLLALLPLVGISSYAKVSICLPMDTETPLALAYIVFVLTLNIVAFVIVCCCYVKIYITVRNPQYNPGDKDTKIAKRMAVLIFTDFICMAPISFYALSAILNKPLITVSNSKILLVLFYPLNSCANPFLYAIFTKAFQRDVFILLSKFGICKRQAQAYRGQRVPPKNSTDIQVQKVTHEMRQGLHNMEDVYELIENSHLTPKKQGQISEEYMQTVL
# Procedure, shortened: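 HEK293/TSHR, 800 cells/well; cpd 30 min RT; add cAMP-d2 + anti-cAMP-cryptate, 1 h RT; fluorescence read on plate reader. 15-pt titration, n=3.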
# [6] = qHTS assay to identify small molecule agonists of H2AX (AID 1224845; active means well fitted activation curve with a large enough effect in the signal ratio in the repeat runs, not every such curve was filed as active; inconclusive means weak or mixed curves; the % refers to the signal ratio; further: potency means the concentration at half of the fitted maximal effect; on activation (H2AX phosphorylation): on the % scale 0 is the no-effect control and ±100 the full control effect); conditions: CHO-K1 phospho-H2AX Ser139 HTRF, 3 h; activation (H2AX phosphorylation): at 154 µM (top of the series) unless noted
# Procedure, shortened: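 Wild-type CHO-K1 cells, plated overnight, exposed 3hr at 37C to 15 concentrations (0.76% DMSO final). Lysed, then HTRF anti-pH2AX (S139) cryptate and anti-H2AX-d2 antibodies, 24 hr room temperature; 665/620 nm emission read.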
# [7] = qHTS assay to identify small molecule agonists of the constitutive androstane receptor (CAR) signaling pathway - cell viability counter screen (AID 1224836); further: potency means the concentration at half of the fitted maximal effect; nearly all actives have a fitted effect of over 45% in size
# Procedure, shortened: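 Viability read-out: CellTiter-Fluor fluorescence after 23 h compound exposure at 37 C/5% CO2 in double-stable HepG2-CYP2B6-hCAR cells, with PK11195 present at 0.75 uM final; compounds tested in 15-point titration.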
# [8] = qHTS assay to identify small molecule antagonists of the estrogen related receptor signaling pathway with the pleiotropic PPARgamma coactivator (PGC) from Tox21 10K library - cell viability counter screen (AID 1224840; active means well fitted cell-killing curve with a large enough effect in the repeat runs, not every such curve was filed as active; inconclusive means weak or mixed curves, or effect the other way; inactive means no such curve, though single readings can be large or run the other way; further: potency means the concentration at half of the fitted maximal effect; nearly all actives have a fitted effect of over 40% in size)
# Procedure, shortened: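 Seeded PGC/ERR cells (2,000/well, 6 h, 37 C/5% CO2) get compound by pin tool; 17.5 h incubation at 37 C; CellTiter-Fluor added, 30 min, fluorescence measured.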
# [9] = qHTS assay to identify small molecule agonists of the estrogen related receptor signaling pathway with the pleiotropic PPARgamma coactivator (PGC) from Tox21 10K library (AID 1224842); further: potency means the concentration at half of the fitted maximal effect; nearly all actives have a fitted effect of over 15% in size
# Procedure, shortened: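 PGC/ERR reporter cell line, 2,000 cells per well, incubated 6 h at 37 C before 23 nL compound in DMSO was added. After 18 h at 37 C, One-Glo luminescence read following 30 min at room temperature.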
# [10] = qHTS assay to identify small molecule agonists of the hypoxia (HIF-1) signaling pathway - cell viability counter screen (AID 1224844; calls by dose curve; further: potency means the concentration at half of the fitted maximal effect; nearly all actives have a fitted effect of over 50% in size)
# Procedure, shortened: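 HRE-bla ME-180; 0.5% dFBS; cpd 17 h, 37C, 5% CO2; CellTiter-Glo lum., 30 min RT, post-FRET read, same wells.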
# [11] = qHTS assay to identify small molecule agonists of the hypoxia (HIF-1) signaling pathway (AID 1224846; active means well fitted activation curve with a large enough effect in the signal ratio in the repeat runs, not every such curve was filed as active; inconclusive means weak or mixed curves; the % refers to the signal ratio; further: potency means the concentration at half of the fitted maximal effect; on activation: on the % scale 0 is the no-effect control and ±100 the full control effect); conditions: HRE-bla ME-180 cells, beta-lactamase ratio, 17 h; activation: at 76.8 µM (top of the series) unless noted
# Procedure, shortened: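 Reporter induction in HRE-bla ME-180 cells is taken as agonism: cells sit 5 hrs after plating, receive compounds or DMSO only, incubate 17 hrs at 37C under 5% CO2, and are loaded with CCF4-AM for beta-lactamase FRET measurement.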
# [12] = qHTS assay to identify small molecule antagonists of the constitutive androstane receptor (CAR) signaling pathway - cell viability counter screen (AID 1224837); further: potency means the concentration at half of the fitted maximal effect; nearly all actives have a fitted effect of over 45% in size
# Procedure, shortened: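 To flag cytotoxic false antagonists, HepG2 hCAR/CYP2B6-2.2kb cells were treated 23 hr with 15-concentration compound series and 50 nM CITCO at 37 C/5% CO2; CellTiter-Fluor fluorescence was the measured end point.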
# [13] = qHTS assay to identify small molecule agonists of H2AX - cell viability counter screen (AID 1224847; calls by dose curve; further: potency means the concentration at half of the fitted maximal effect; nearly all actives have a fitted effect of over 30% in size)
# Procedure, shortened: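 CHO-K1 wt, 1000 cells/well, o/n 37C; cpds 15 conc, 3 h 37C, 0.76% DMSO; CellTiter-Glo, 30 min RT, luminescence.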
# [14] = qHTS assay to identify small molecule agonists of the estrogen related receptor (ERR) signaling pathway from Tox21 library (AID 1224849; calls by dose curve; further: on the % scale 0 is the no-effect control and ±100 the full control effect; nearly all actives have a fitted effect of over 15% in size); conditions: ERR reporter cell line, ONE-Glo luciferase, 18 h; at 92.4 µM (top of the series) unless noted
# Procedure, shortened: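 Tox21 compounds tested for ERR agonism in an NTP reporter cell line: 18 h treatment at 37 C, then ONE-Glo luminescence.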
# [15] = qHTS RealTime-Glo MT Cell Viability Assay in HEK293 cells - 32 hour (AID 1224868); further: potency means the concentration at half of the fitted maximal effect; nearly all actives have a fitted effect of over 50% in size
# Procedure, shortened: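 HEK293 cells seeded with NanoLuc/prosubstrate reagent, rested 5 h at 37 C, then dosed and kept at 37 C up to 40 h. Nonlytic real-time luminescence from viable cells read at 0, 8, 16, 24, 32 and 40 h.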
# [16] = qHTS RealTime-Glo MT Cell Viability Assay in HepG2 cells - 24 hour (AID 1224867)
# Procedure, shortened: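 HepG2 cells (600/well) were dispensed with RealTime-Glo reagents, incubated 5 h at 37 °C, then treated with compounds in DMSO for up to 40 h. Nonlytic NanoLuc luminescence reflecting viable cells was read at each stated time point.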
# Tags describe the fitted curve by direction and shape or compound fluorescence and quenching.
smiles,measurement,setting,value
Cc1[nH]cnc1-c1ccc(Cl)cc1,Potency,[1],"inconclusive: 34.7 µM [inhibitor, partial curve]"
same,Potency,[2],"inconclusive: 23.7 µM [activator, partial curve]"
Nc1ccccc1S(=O)(=O)c1ccccc1,Potency,[1],inactive
same,Potency,[3],"inconclusive: 61.1 µM [falling, partial curve, poor fit]"
same,Potency,[4],inconclusive: 61.1 µM [inhibitor]
CCCCCCCCCCCO,Potency,[1],"inconclusive: 57.8 µM [inhibitor, partial curve] and inconclusive: 35.6 µM [inhibitor, partial curve]"
same,Potency,[3],inactive
same,Potency,[5],inactive
same,Potency,[6],inactive
COc1cccc2c1C(=O)c1c(O)c3c(c(O)c1C2=O)C[C@@](O)(C(=O)CO)C[C@@H]3O[C@H]1C[C@H](N)[C@H](O)[C@H](C)O1,Potency,[1],inconclusive: 39.9 µM [inhibitor] and active: 15.5 µM
same,Potency,[7],active: 6.85 µM and active: 6.68 µM
same,Potency,[8],"inconclusive: 2.17 µM [cytotoxic, full curve] and inconclusive: 7.5 µM [cytotoxic, full curve]"
same,Potency,[9],active: 216 nM and active: 596 nM
same,Potency,[5],inconclusive: 30.6 µM
same,Potency,[10],active: 5.49 µM and active: 10.7 µM
O=C(c1ccccc1)c1ccc(O)cc1O,Potency,[1],"inconclusive: 64.5 µM [inhibitor, partial curve]"
same,Potency,[7],"inconclusive: 69.9 µM [cytotoxic, single point]"
same,Potency,[2],"inconclusive: 62.3 µM [activator, partial curve]"
same,Potency,[10],"inconclusive: 56 µM [cytotoxic, single point]"
same,Potency,[6],"inconclusive: 129 µM [activator, single point]"
same,Potency,[11],inconclusive: 56 µM [single point]
c1cnc2c(c1)ccc1cccnc12,Potency,[1],"inconclusive: 89.4 µM [inhibitor, partial curve, poor fit]"
same,Potency,[12],"inconclusive: 0.77 µM [cytotoxic, full curve]"
same,Potency,[2],"inconclusive: 30.6 µM [activator, partial curve] and inconclusive: 48.6 µM [activator, partial curve, poor fit]"
same,Potency,[8],"active: 2.76 µM and active: 2.73 µM and inconclusive: 5.45 µM [cytotoxic, full curve]"
same,Potency,[10],"inconclusive: 61.6 µM [rising, single point]"
same,Potency,[6],active: 6.35 µM
same,Potency,[13],active: 80.8 µM
same,Potency,[4],active: 1.23 µM and active: 1.09 µM and active: 1.54 µM
Cc1ccc2c(n1)Oc1ccc(C(C)C(=O)OCC(=O)N(C)C)cc1C2 (stereo not given),Potency,[1],active: 17.4 µM and active: 15.5 µM
same,Potency,[9],"inconclusive: 13.3 µM [activator, partial curve]"
same,"activity change, positive = activation",[14],active: 24.3% [at 42.5 µM]
same,Potency,[15],"inconclusive: 21.3 µM [cytotoxic, partial curve, poor fit]"
c1ccc(Nc2ccccc2)cc1,Potency,[1],"inconclusive: 63.3 µM [inhibitor, partial curve] and inconclusive: 79.6 µM [inhibitor]"
same,Potency,[8],"inconclusive: 38.5 µM [cytotoxic, partial curve]"
same,Potency,[3],"inconclusive: 10.9 µM [falling, full curve, poor fit]"
same,activation,[5],inconclusive: 18.6%
same,activation (H2AX phosphorylation),[6],inconclusive: 11%
same,Potency,[11],"inconclusive: 38.9 µM [falling, partial curve]"
same,Potency,[13],"inconclusive: 101 µM [cytotoxic, partial curve] and inconclusive: 127 µM [cytotoxic, partial curve, poor fit]"
same,Potency,[16],"inconclusive: 38.9 µM [falling, partial curve]"
COC(=O)c1ccc(C(=O)OC)c(C(=O)OC)c1,Potency,[1],"inconclusive: 79.6 µM [inhibitor, partial curve, poor fit]"
same,Potency,[2],inactive
CCCOC(=O)c1cc(O)c(O)c(O)c1,Potency,[1],"inconclusive: 44.6 µM [inhibitor, partial curve] and inconclusive: 89.4 µM [inhibitor, single point]"
same,Potency,[2],active: 19.3 µM
same,Potency,[8],"inconclusive: 48.3 µM [cytotoxic, partial curve] and inconclusive: 54.5 µM [cytotoxic, partial curve, poor fit]"
same,Potency,[9],"inconclusive: 7.7 µM [activator, partial curve]"
same,Potency,[5],"inconclusive: 68.2 µM [partial curve, poor fit]"
same,Potency,[10],"inconclusive: 61.6 µM [cytotoxic, partial curve, poor fit]"
same,Potency,[6],"inconclusive: 89.3 µM [falling, partial curve] and inconclusive: 89.8 µM [falling, partial curve]"
same,Potency,[15],"inconclusive: 48.7 µM [cytotoxic, partial curve]"
Cc1oc(-c2ccccc2)nc1CCOc1cccc2c1ccn2CCC(=O)O,Potency,[1],"inconclusive: 79.6 µM [inhibitor, single point]"
same,Potency,[12],"inconclusive: 24.3 µM [cytotoxic, partial curve]"
same,Potency,[6],"inconclusive: 50.5 µM [falling, partial curve, poor fit]"
same,Potency,[11],inactive
